# Results: PubChem BioAssay AID504832 (National Center for Advancing Translational Sciences (NCATS), 2011)
# Out of some 310,000 compounds screened, about 18,000 (5.8%) were called active. The shares of active, inactive and inconclusive entries below differ from those in the screen. Calls come from the whole dose curve; as a rule, active = well fitted inhibition curve with a large enough effect; inconclusive = small, poorly fitted or top-dose-only effect, or another doubt; inactive = no such curve, though single readings can be large or run the other way. Potencies of inconclusive entries are left out as doubtful fits.
# Test: Primary qHTS for delayed death inhibitors of the malarial parasite plastid, 48 hour incubation
# Details: P. falciparum luciferase growth in erythrocytes; series mostly up to 28.7 µM; activity change, negative = inhibition: at the top concentration
# How it was run: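 Parasite viability was followed by luminescence of a genomically integrated firefly luciferase. Cultures held 0.1% parasitemia at 2% hematocrit (final), incubated under 5% CO2 at 37 C.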
# % is set by controls: 0 for no effect and ±100 for the full control effect; potency is the fitted concentration of half-maximal effect; tags give direction and shape of the fitted curve.
SMILES,"activity change, negative = inhibition",Potency
CN(Cc1ccc(F)cc1)C(=O)COc1ccccc1-c1ccccc1,inactive: -24.1%,
CC(=O)c1cc(C)ccc1OC(=O)CN1C(=O)c2ccccc2C1=O,inactive: -19.8%,
CCOC(=O)c1sc(Nc2nc3ccc(OC)cc3s2)cc1C,,"inconclusive [inhibitor, single point]"
O=C(CCCc1ccccc1)Nc1ccc(S(=O)(=O)N2CCOCC2)cc1,,"inconclusive [inhibitor, single point]"
O=C(CCn1cnc2ccccc2c1=O)Nc1ccc(S(=O)(=O)N2CCCC2)cc1,,"inconclusive [inhibitor, partial curve, poor fit]"
CN(C)C(CNC(=O)c1ccc(NC(=O)CC#N)cc1)c1ccccc1 (centres undefined),,"inconclusive [inhibitor, single point]"
COc1ccc(-n2c(/C=C3\C(=O)N(C)c4ccccc43)nc3ccccc3c2=O)cc1,,active: 6.57 µM
Cc1cc(C(=O)O[C@H]2[C@H](Cc3ccccc3)NS(=O)(=O)[C@H]3C[C@@H]4C=C[C@]23O4)ccc1[N+](=O)[O-],,"inconclusive [inhibitor, single point]"
COC(=O)c1ccc(N2CCOCC2)c(NC(=O)Nc2cccc(OC)c2)c1,inactive: 4.3%,
CCOC(=O)COn1c(=O)c(-c2cccs2)[n+]([O-])c2ccccc21,inactive: 42.3%,
Cc1ccc(S(=O)(=O)NCCN=C(CN2CCCC2)NS(=O)(=O)c2ccc(C)cc2)cc1,,"inconclusive [inhibitor, full curve, poor fit]"
CCc1ccc(NC(=S)N(CCN2CCCCC2)Cc2ccco2)cc1,,"inconclusive [inhibitor, full curve, poor fit]"
O=C(Nc1nc2ccc(Oc3ccccc3)cc2s1)c1cc([N+](=O)[O-])ccc1N1CCOCC1,,"inconclusive [inhibitor, single point]"
CCc1cc(-c2n[nH]c(C)c2-c2nc3ccccc3s2)c(O)cc1OCC(=O)NN,,active: 5.22 µM
CC(C1CC2CCC1C2)n1c(-c2ccco2)n[nH]c1=S (centres undefined),,"inconclusive [inhibitor, single point]"
CSc1ccccc1C(=O)NCCSc1ccccc1,inactive: 19.1%,
Cc1c(C(=O)O)[nH]c2c1C(=O)CC(c1ccc(Cl)cc1)C2 (centres undefined),inactive: 6.48%,
C=CCc1cccc(/C=N/NC(=O)c2ccccc2Br)c1O,,"inconclusive [inhibitor, single point]"
Cc1ccc(N2C(=O)CC(Cc3cc(C)cc(C)c3)C2=O)cc1 (centres undefined),inactive: -13.5%,
CCOC(=O)c1ccc(NC(=S)NCCCN2CCN(C3CCCCC3)CC2)cc1,,"inconclusive [inhibitor, partial curve, poor fit]"
O=c1[nH]c(/C=C\c2cccc(Cl)c2)nc(O)c1[N+](=O)[O-],,"inconclusive [inhibitor, partial curve, poor fit]"
COc1ccc(-c2n[nH]c(C)c2-c2ccccc2OC)c(O)c1,,active: 9.28 µM

SMILES,"activity change, negative = inhibition",Potency
Cc1c(C(=O)NCCSCc2c(Cl)cccc2Cl)cccc1[N+](=O)[O-],,"inconclusive [inhibitor, single point]"
O/N=C/c1cccc[n+]1CCCCCC[n+]1ccccc1/C=N/O,,"inconclusive [inhibitor, partial curve]"
Nc1nc(NCc2ccccc2)nc(NCCO)c1[N+](=O)[O-],,"inconclusive [inhibitor, partial curve, poor fit]"
COc1ccc(C2(c3ccc(OC)cc3)NC(=O)N(CC(=O)NCC(C)c3ccccc3)C2=O)cc1 (centres undefined),,active: 11.7 µM
Cc1cc2oc(C(=O)Nc3nonc3C)c(C)c2cc1Cl,inactive: 75%,
CN(C)[C@@H]1C(=O)C(C(N)=O)=C(O)[C@@]2(O)C(=O)C3=C(O)c4c(O)ccc(Cl)c4[C@@H](O)[C@H]3C[C@@H]12,,active: 2.08 µM
CCN(CC)c1ccc(C=Nc2ccccc2)c(O)c1,,"inconclusive [inhibitor, single point]"
CC(=O)c1c(C)[nH]c(C(=O)Nc2cccc(S(=O)(=O)N3CCOCC3)c2)c1C,inactive: -7.69%,
Cc1cc(NC(=O)c2ccccc2F)on1,inactive: -0.353%,
Cc1cc(NC(=O)CSc2nc(=O)n3cc(Cl)ccc3n2)no1,,"inconclusive [inhibitor, partial curve, poor fit]"
CCC(Sc1nc2sc(C(=O)OC)c(C)c2c(=O)n1N)C(=O)NCC1CCCO1 (centres undefined),,"inconclusive [inhibitor, partial curve, poor fit]"
C[C@@H]1c2cccc(O)c2C(O)=C2C(=O)[C@@]3(O)C(O)=C(C(N)=O)C(=O)[C@@H](N(C)C)[C@@H]3[C@@H](O)[C@@H]21,,active: 7.57 µM
CCCn1c(N)c(C(=O)CN(C)CC(=O)Nc2cccc(F)c2)c(=O)[nH]c1=O,,"inconclusive [inhibitor, single point]"
O=C(NC(C(=O)N/N=C/c1cc([N+](=O)[O-])ccc1O)c1n[nH]c(=O)c2ccccc12)c1ccccc1 (centres undefined),,"inconclusive [inhibitor, single point]"
Cc1ccc(C(=O)NCC(=O)OCc2cccc(Br)c2)cc1,inactive: 7.34%,
Cc1ccc2cc3cc(C(=O)NCCCN4CCCC4=O)oc3nc2c1,,active: 2.62 µM
CCNC(=O)NCCc1c[nH]c2ccc(Cl)cc12,,"inconclusive [inhibitor, single point]"
CC(C)c1ccc(CNc2ccc(N3CCOCC3)cc2)cc1,,"inconclusive [inhibitor, partial curve, poor fit]"
COc1ccc(CCNC(=O)CSc2cc(=O)[nH]c(N)n2)cc1OC,inactive: 3.93%,
CCN1C(=O)[C@H]2[C@@H](c3ccc(Cl)cc3)N3C(=O)CN(CC4CC4)C(=O)[C@@]3(Cc3ccccc3)[C@H]2C1=O,inactive: 1.4%,
Cn1c(-c2ccc(F)cc2)cnc1NCc1ccccc1,inactive: 20.3%,
CCOC(=O)c1cccc(NC(=O)CCn2nc(C)c(S(=O)(=O)N3CCCCC3)c2C)c1,,"inconclusive [inhibitor, partial curve, poor fit]"
